Test results taken from the supplement of paper PMC8728848.
Some of the results follow.

Tests used:
Experiment in all cases: glycan array binding signal (z-score within array); higher = stronger binding
Conditions in all cases: glycan notation: IUPAC condensed, linker removed
[1] = target: Gal(a1-4)Gal(b1-4)GlcNAc(b1-2)Man(a1-3)[Gal(a1-4)Gal(b1-4)GlcNAc(b1-2)Man(a1-6)]Man(b1-4)GlcNAc(b1-4)GlcNAc
In short: (§1)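 The Consortium for Functional Glycomics database supplied 3228 glycan arrays, of which those lacking an available protein sequence were dropped. The binding signal, a within-array Z-score, was averaged across arrays of the same protein sequence and across linkers. Negative scores can be read as non-binding.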

[2] = target: Gal(a1-4)Gal(b1-4)GlcNAc(b1-3)Gal(b1-4)Glc
In short: as §1

[3] = target: Gal(a1-4)GlcNAc
In short: as §1

[4] = target: Gal(a1-6)Glc
In short: as §1

[5] = target: Gal(b1-2)Gal
In short: as §1

[6] = target: Gal(b1-3)Gal
In short: as §1

[7] = target: Gal(b1-3)Gal(b1-4)GlcNAc
In short: as §1

[8] = target: Gal(b1-3)Gal(b1-4)GlcNAc(b1-2)Man(a1-3)[Gal(b1-3)Gal(b1-4)GlcNAc(b1-2)Man(a1-6)]Man(b1-4)GlcNAc(b1-4)GlcNAc
In short: as §1

[9] = target: Gal(b1-3)GalNAc
In short: as §1

[10] = target: Gal(b1-3)GalNAc(a1-3)[Fuc(a1-2)]Gal(b1-4)Glc
In short: as §1

[11] = target: Gal(b1-3)GalNAc(a1-3)[Fuc(a1-2)]Gal(b1-4)GlcNAc
In short: as §1

[12] = target: Gal(b1-3)GalNAc(b1-3)Gal(a1-4)Gal(b1-4)Glc
In short: as §1

[13] = target: Gal(b1-3)GalNAc(b1-4)Gal(b1-4)Glc
In short: as §1

[14] = target: Gal(b1-3)GalNAc(b1-4)[Neu5Ac(a2-3)]Gal(b1-4)Glc
In short: as §1

[15] = target: Gal(b1-3)GlcNAc
In short: as §1

[16] = target: Gal(b1-3)GlcNAc(a1-6)Gal(b1-4)GlcNAc
In short: as §1

[17] = target: Gal(b1-3)GlcNAc(b1-2)Man(a1-3)[Gal(b1-3)GlcNAc(b1-2)Man(a1-6)]Man(b1-4)GlcNAc(b1-4)GlcNAc
In short: as §1

[18] = target: Gal(b1-3)GlcNAc(b1-2)Man(a1-3)[Gal(b1-3)GlcNAc(b1-2)Man(a1-6)]Man(b1-4)GlcNAc(b1-4)[Fuc(a1-6)]GlcNAc
In short: as §1

[19] = target: Gal(b1-3)GlcNAc(b1-2)[Gal(b1-3)GlcNAc(b1-6)]Man(a1-6)[Gal(b1-3)GlcNAc(b1-2)Man(a1-3)]Man(b1-4)GlcNAc(b1-4)GlcNAc
In short: as §1

[20] = target: Gal(b1-3)GlcNAc(b1-3)Gal(b1-3)GlcNAc
In short: as §1

[21] = target: Gal(b1-3)GlcNAc(b1-3)Gal(b1-4)Glc
In short: as §1

[22] = target: Gal(b1-3)GlcNAc(b1-3)Gal(b1-4)GlcNAc
In short: as §1

[23] = target: Gal(b1-3)GlcNAc(b1-3)Gal(b1-4)GlcNAc(b1-6)[Gal(b1-3)GlcNAc(b1-3)]Gal(b1-4)Glc
In short: as §1

[24] = target: Gal(b1-3)GlcNAc(b1-3)Gal(b1-4)[Fuc(a1-3)]GlcNAc(b1-6)[Gal(b1-3)GlcNAc(b1-3)]Gal(b1-4)Glc
In short: as §1

[25] = target: Gal(b1-3)GlcNAc(b1-3)GalNAc
In short: as §1

[26] = target: Gal(b1-3)GlcNAc(b1-6)Gal(b1-4)GlcNAc
In short: as §1

[27] = target: Gal(b1-3)[Fuc(a1-4)]GlcNAc
In short: as §1

[28] = target: Gal(b1-3)[Fuc(a1-4)]GlcNAc(b1-2)Man(a1-3)[Gal(b1-3)[Fuc(a1-4)]GlcNAc(b1-2)Man(a1-6)]Man(b1-4)GlcNAc(b1-4)GlcNAc
In short: as §1

[29] = target: Gal(b1-3)[Fuc(a1-4)]GlcNAc(b1-2)Man(a1-3)[Gal(b1-3)[Fuc(a1-4)]GlcNAc(b1-2)Man(a1-6)]Man(b1-4)GlcNAc(b1-4)[Fuc(a1-6)]GlcNAc
In short: as §1

[30] = target: Gal(b1-3)[Fuc(a1-4)]GlcNAc(b1-3)Gal(b1-3)[Fuc(a1-4)]GlcNAc
In short: as §1

[31] = target: Gal(b1-3)[Fuc(a1-4)]GlcNAc(b1-3)Gal(b1-4)GlcNAc
In short: as §1

[32] = target: Gal(b1-3)[Fuc(a1-4)]GlcNAc(b1-3)Gal(b1-4)[Fuc(a1-3)]GlcNAc
In short: as §1

[33] = target: Gal(b1-3)[GlcNAc(b1-6)]GalNAc
In short: as §1

[34] = target: Gal(b1-3)[Neu5Ac(a2-6)]GalNAc
In short: as §1

[35] = target: Gal(b1-3)[Neu5Ac(a2-6)]GlcNAc(b1-6)Gal(b1-4)Glc
In short: as §1

[36] = target: Gal(b1-3)[Neu5Ac(b2-6)]GalNAc
In short: as §1

[37] = target: Gal(b1-4)Gal
In short: as §1

B1: SCA (Schizophyllum commune) (protein)
chain: MGIDQGVYLITNAGSGTAATLKDGYVKGWERIKGKEQLNQLWFVKSVKTSASDPGYAAFNLATNKVLDLEKGLADRGTPILGWDYHEGDNQHWVIKKQADGKYYKIQSVKTQTFVDLNNGGKDNGTKIQGWVGSWDETNSHQRWVFNQFSATGSRIKSILDTHPKIHGKVIVEWPDRIYFTPDQYIFEAIWAKTGLADIKPRDPLFQSEAYEKVFKGWVVSRAQEIIKVDGFDILVGSLSLVEKSTQKIKVLDVSVRTSDDKSPDLSQIVFFDPESGRTLVDIPEGYEVNSVII
- glycan array binding signal (z-score) [1]: 0.897
- glycan array binding signal (z-score) [2]: -0.124
- glycan array binding signal (z-score) [3]: -0.135
- glycan array binding signal (z-score) [4]: -0.161
- glycan array binding signal (z-score) [5]: -0.162
- glycan array binding signal (z-score) [6]: -0.162
- glycan array binding signal (z-score) [7]: -0.164
- glycan array binding signal (z-score) [8]: 11.4
- glycan array binding signal (z-score) [9]: -0.16
- glycan array binding signal (z-score) [10]: -0.16
- glycan array binding signal (z-score) [11]: -0.158
- glycan array binding signal (z-score) [12]: -0.16
- glycan array binding signal (z-score) [13]: -0.158
- glycan array binding signal (z-score) [14]: -0.16
- glycan array binding signal (z-score) [15]: -0.162
- glycan array binding signal (z-score) [16]: -0.134
- glycan array binding signal (z-score) [17]: -0.158
- glycan array binding signal (z-score) [18]: -0.159
- glycan array binding signal (z-score) [19]: 1.05
- glycan array binding signal (z-score) [20]: -0.161
- glycan array binding signal (z-score) [21]: -0.163
- glycan array binding signal (z-score) [22]: -0.158
- glycan array binding signal (z-score) [23]: 0.045
- glycan array binding signal (z-score) [24]: -0.147
- glycan array binding signal (z-score) [25]: -0.161
- glycan array binding signal (z-score) [26]: 0.044
- glycan array binding signal (z-score) [27]: -0.161
- glycan array binding signal (z-score) [28]: -0.162
- glycan array binding signal (z-score) [29]: -0.054
- glycan array binding signal (z-score) [30]: -0.159
- glycan array binding signal (z-score) [31]: -0.16
- glycan array binding signal (z-score) [32]: -0.16
- glycan array binding signal (z-score) [33]: -0.16
- glycan array binding signal (z-score) [34]: -0.152
- glycan array binding signal (z-score) [35]: -0.133
- glycan array binding signal (z-score) [36]: -0.161
- glycan array binding signal (z-score) [37]: -0.165
